Measurements from PubChem BioAssay AID504832 (National Center for Advancing Translational Sciences (NCATS), 2011).
About 18,000 (5.8%) of roughly 310,000 compounds were called active. Inconclusive means that the source gave no clear call. Such entries were picked first, then a sample of the others. The call rests on the fitted dose curve; in most records, active means well fitted inhibition curve with a large enough effect; inconclusive means small, poorly fitted or top-dose-only effect, or another doubt; inactive means no such curve, though single readings can be large or run the other way. No potency is given beside an inconclusive call; the fits are too rough.

Assay: Primary qHTS for delayed death inhibitors of the malarial parasite plastid, 48 hour incubation
Conditions: P. falciparum luciferase growth in erythrocytes; series mostly up to 28.7 µM
Procedure, shortened: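 Erythrocytes infected with P. falciparum carrying an integrated firefly luciferase reporter (2% hematocrit, 0.1% parasitemia final) were exposed to compounds in RPMI 1640 with 0.5% Albumax at 37 C, 5% CO2. Growth inhibition was scored as reduced luminescence.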
Potency means the concentration at half of the fitted maximal effect; tags describe the fitted curve by direction and shape.

Row | SMILES | Potency
1 | O=C(CSc1nncs1)Nc1nnc(-c2ccccc2)o1 | inactive
2 | O=C(Nc1ccccc1N1CCOCC1)c1ccc([N+](=O)[O-])cc1 | inactive
3 | Cc1cc(C)c2cc(CN(Cc3nnnn3Cc3ccc(F)cc3)C3CCCC3)c(=O)[nH]c2c1 | inconclusive [inhibitor, partial curve, poor fit]
4 | Cc1ccccc1CN1CCN(CC(=O)NCc2ccccc2)CC1 | inactive
5 | COCCN(CC1CCCN(C2Cc3ccccc3C2)C1)C(=O)CCC(C)=O (stereo unspecified) | inactive
6 | Cc1cccc(N(C(=O)c2snc(C(N)=O)c2N)C(C(=O)NCC2CCCO2)c2c[nH]c3ccccc23)c1 (stereo unspecified) | inconclusive [inhibitor, partial curve, poor fit]
7 | O=C(C[n+]1cc(Br)cc2ccccc21)c1ccc(Cl)cc1 | inconclusive [inhibitor, partial curve]
8 | CC[C@@H]1Cc2cc(O)ccc2C2=C1c1ccc(O)cc1C[C@H]2CC | active: 11.7 µM
9 | CCCS(=O)(=O)c1c(S(=O)(=O)CCC)c2c(N)cccn2c1C(=O)c1ccc(OC)cc1 | inconclusive [inhibitor, single point]
10 | CN(C)C1(CNC(=O)c2cc(S(=O)(=O)N3CCOCC3)c(Cl)cc2Cl)CCCCC1 | inconclusive [inhibitor, single point]
11 | Clc1ccc(Nc2ccc(Cl)nn2)cc1 | inactive
12 | Cc1ccc(-c2csc(N3CCN(c4cc5c(cc4Cl)nc(C)n5CCN4CCCCC4)CC3)n2)cc1 | inconclusive [inhibitor, full curve, poor fit]
13 | C[C@@H]1CN(C(=O)c2nc3ccc(Cl)cn3c2CN2CCc3sccc3C2)C[C@H](C)O1 | inconclusive [inhibitor, single point]
14 | Cc1ccc(-c2c[n+](CC(=O)Nc3ccccc3C)c3n2CCC3)cc1 | inconclusive [inhibitor, partial curve]
15 | CCOC(=O)c1c(C)[nH]c(C)c1S(=O)(=O)N1c2ccccc2CC1C (stereo unspecified) | inconclusive [inhibitor, full curve, poor fit]
16 | COC(=O)c1scc(C)c1NC(=O)Nc1ccccc1 | inactive
17 | N#Cc1ccccc1S(=O)(=O)N1CCN(C(=O)c2cn(-c3ccccc3)nc2-c2cccnc2)CC1 | inconclusive [inhibitor, single point]
18 | O=C(NCCSCc1ccco1)c1ccc(=O)[nH]c1 | inactive
19 | CCNc1nc(Oc2ccc(OC)cc2)cc(C(F)(F)F)n1 | inactive
20 | C=CCOc1ccc(/C=C2\SC(N3CCCCC3)=NC2=O)cc1 | inconclusive [inhibitor, single point]
21 | CCN1C(=O)[C@H]2[C@@H](c3ccc(-c4cc(C(C)=O)cs4)cc3)N3CCCC[C@@]3(C(=O)OC)[C@H]2C1=O | inconclusive [inhibitor, single point]
22 | CCn1c(=N)n(CC(=O)c2ccc(Cl)c(Cl)c2)c2ccccc21 | inconclusive [inhibitor, single point]
23 | Cc1cccc(/C=N/NC(=O)c2cccc(Cl)c2)n1 | inactive

Row | SMILES | Potency
24 | O=C(COc1ccccc1F)Nc1ccc(S(=O)(=O)NCc2ccco2)cc1 | inactive
25 | Nc1sc(-c2ccccc2)cc1C(=O)N/N=C/c1ccc(Cl)cc1 | inactive
26 | COc1ccc(NS(=O)(=O)c2cc(NC(=O)C3CCCCC3)ccc2N2CCOCC2)cc1 | active: 10.4 µM
27 | CCCCN(CC)C(=O)Cn1cnc2sc(C)c(S(=O)(=O)N3CCC(C)CC3)c2c1=O | inconclusive [inhibitor, single point]
28 | CN(CC(=O)NCC(c1ccco1)N1CCCCC1)S(=O)(=O)c1ccc(Cl)cc1 (stereo unspecified) | active: 8.28 µM
29 | Cc1nc2ncccn2c1-c1csc(NCc2ccco2)n1 | inconclusive [inhibitor, single point]
30 | Cc1cccc(C(=O)OCC(=O)NC(=O)Cc2ccccc2)c1O | inactive
31 | Cc1cc(C)nc(SCC(=O)NN)n1 | inconclusive [inhibitor, single point]
32 | COc1ccc([C@@H]2[C@@H]3C(=O)N(C(C)(C)C)C(=O)[C@@H]3[C@]3(CC(C)C)C(=O)N(c4ccc(C(F)(F)F)cc4)C(=O)N23)cc1 | active: 11.7 µM
33 | Cc1ccc(OCCNS(=O)(=O)c2ccc(Cl)cc2)cc1 | inactive
34 | Cc1[nH]c2ccccc2c1C(=O)CN1C(=O)NC(C)(c2ccc(Cl)cc2Cl)C1=O (stereo unspecified) | inconclusive [inhibitor, single point]
35 | Fc1cccc(F)c1-n1c(CN2CCCCC2)csc1=S | inconclusive [inhibitor, partial curve, poor fit]
36 | O=C1CC(c2cc([N+](=O)[O-])ccc2Cl)c2c(ccc3ccccc23)N1 (stereo unspecified) | inconclusive [inhibitor, partial curve]
37 | CCN1CCN(c2ccc(S(=O)(=O)N3CCCCC3)cc2NC(=O)c2cc3ccccc3o2)CC1 | active: 4.15 µM
38 | CCN(CC)S(=O)(=O)c1ccc(OC)nc1 | inconclusive [inhibitor, full curve]
39 | Cc1cccnc1NC(=O)C1CC(=O)N(c2ccc3c(c2)OCCO3)C1 (stereo unspecified) | inconclusive [inhibitor, single point]
40 | COC(=O)c1cc(NC(=O)C(C)c2ccc(CC(C)C)cc2)ccc1O (stereo unspecified) | inconclusive [inhibitor, full curve]
41 | COc1ccc(NC(=O)C2Cc3cc(S(=O)(=O)N4CCCCC4)ccc3N2C(C)=O)cc1Cl (stereo unspecified) | inconclusive [inhibitor, single point]
42 | Cc1ccsc1C(=O)OCC(=O)c1ccc[nH]1 | inactive
43 | CCOC(=O)c1ccc(NC(=O)CCc2nc(-c3ccccc3)no2)cc1 | inactive
44 | O=C(NNC(=O)C1CC1c1ccccc1)c1ccccc1[N+](=O)[O-] (stereo unspecified) | inactive
45 | CCOC(=O)CCn1c(=O)c2c(nc(Br)n2Cc2ccccc2)n(C)c1=O | inconclusive [inhibitor, single point]
46 | NNC(=O)CSc1c(-c2ccccc2)c2cc(Cl)ccc2[nH]c1=O | inconclusive [inhibitor, single point]
